Out of some 110,000 compounds screened, about 230 (0.21%) showed an effect of 50% or more. The list shows a part of the results.
Molecular target: DPAP1 (Plasmodium falciparum, UniProt Q8IIJ9)
Assay: primary screen, percent inhibition; read by cleavage of a fluorogenic dipeptide substrate; higher = more effect of the substance
Design: species or system P. falciparum D10 trophozoite lysates; single well
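Further: 30 min substrate incubation versus DMSO and 10 µM JCP410 controls.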

DPAP1, sequence (Q8IIJ9 whole entry, looked up): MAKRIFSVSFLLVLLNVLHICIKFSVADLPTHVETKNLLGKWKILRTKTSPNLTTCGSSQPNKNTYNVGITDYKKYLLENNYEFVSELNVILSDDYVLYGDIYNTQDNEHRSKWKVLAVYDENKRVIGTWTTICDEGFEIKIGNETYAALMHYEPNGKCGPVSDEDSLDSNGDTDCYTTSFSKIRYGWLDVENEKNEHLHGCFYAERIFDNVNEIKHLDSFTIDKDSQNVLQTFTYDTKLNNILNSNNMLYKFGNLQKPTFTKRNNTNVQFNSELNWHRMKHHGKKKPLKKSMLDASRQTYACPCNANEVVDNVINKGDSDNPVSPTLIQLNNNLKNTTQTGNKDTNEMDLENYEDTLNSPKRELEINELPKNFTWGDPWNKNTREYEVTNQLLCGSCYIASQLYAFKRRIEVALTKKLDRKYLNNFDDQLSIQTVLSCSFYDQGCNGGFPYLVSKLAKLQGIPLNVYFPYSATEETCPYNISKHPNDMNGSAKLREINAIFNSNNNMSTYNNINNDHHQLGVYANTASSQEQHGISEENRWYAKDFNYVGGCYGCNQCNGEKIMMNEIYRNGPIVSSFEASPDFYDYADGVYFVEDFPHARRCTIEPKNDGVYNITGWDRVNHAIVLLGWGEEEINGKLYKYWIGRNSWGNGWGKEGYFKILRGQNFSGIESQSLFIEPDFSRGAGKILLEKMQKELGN

Row | Structure (SMILES) | % Inhibition @ 10 uM [%]
1 | CCN(CC)c1nc(C)nc2ccccc12 | 2.25
2 | CCc1ccc(CN2CCCN(C)CC2)cc1 | -3.87
3 | CCOc1cc2c(cc1/C=C1/NC(=O)N(CC(=O)Nc3ccccc3C)C1=O)OCO2 | -1.96
4 | N#Cc1ccccc1COC(=O)c1cccnc1N | -2.05
5 | Cc1ccc(S(=O)(=O)c2nnn3c2nc(N)c2cc(Cl)ccc23)cc1C | 7.82
6 | CNC(=S)NC1(C)CCS(=O)(=O)C1 (stereo not shown) | 0.884
7 | O=C(CCC(=O)N1CC2CC(C1)c1cccc(=O)n1C2)NCc1cccs1 (stereo not shown) | -7.02
8 | Cc1ccc(-c2cc(C(=O)NCCCn3ccnc3)c3ccccc3n2)o1 | 3.92
9 | CCCc1ccc(OCC(=O)Nc2ccc(CC#N)cc2)cc1 | -3.34
10 | CN1C(=O)COc2ccc(C(=O)c3ccccc3C(=O)O)cc21 | -2.21
11 | Cc1oc2c(c1C(=O)NCC1CCCO1)C(=O)c1ccccc1C2=O (stereo not shown) | 1.91
12 | COc1cc2nc(N3CCN(Cc4ccccc4)CC3)n3nc(-c4ccccc4)nc3c2cc1OC | 4.16
13 | CC(NC(=O)CSc1ccccn1)c1ccccc1 (stereo not shown) | -1.44
14 | N#Cc1ccc(-c2ccc3c(c2)OCO3)nc1SCC(=O)Nc1ccc(F)c(F)c1 | 5.64
15 | CCN(C(=O)COc1ccccc1C)c1ccccc1 | 4.74
16 | O=C(Nc1ccc(Cl)cc1C(=O)NCCN1CCOCC1)c1ccc(Cl)cc1Cl | -1.27
17 | C=CCSc1nc2sc3c(c2c(=O)n1C1CCCCC1)CC(C)(C)OC3 | 3.32
18 | Cc1oc(-c2ccccc2F)nc1CN1CCC(C(=O)NC(C)C)CC1 | -4.71
19 | COc1ccc(C(=O)N2c3ccccc3C(Nc3ccccc3)CC2C)cc1 (stereo not shown) | -2.24
20 | COc1ccc([N+](=O)[O-])cc1NC1CCC(c2ccccc2)CC1 (stereo not shown) | 3.44
21 | COc1ccc(CCNC(=O)c2cc(O)nc3ccc(Br)cc23)cc1OC | -0.0542
22 | O=C(CCNS(=O)(=O)c1ccc(Br)cc1)NCc1ccc(Cl)cc1 | 5.99

Row | Structure (SMILES) | % Inhibition @ 10 uM [%]
23 | O=C(Nc1nccs1)C(Cc1ccccc1)N1Cc2ccccc2C1=O (stereo not shown) | 3.87
24 | O=C(CCN1CCOCC1)NCC(=O)Nc1ccc(Br)cc1C(=O)c1ccccc1 | -2.94
25 | O=C(O)CCC(=O)Nc1ccccc1C(=O)N1CCC(O)(c2ccc(Cl)cc2)CC1 | -0.95
26 | CCCNC(=O)C1CCN(c2nnc(C)c3c(C)n(-c4ccc(OC)cc4)nc23)CC1 | 4.54
27 | COc1nc(-c2ccccc2)cc(-c2cnc(OC)nc2OC)n1 | -1.74
28 | CCCN1C(=O)c2ccc(F)cc2C1=O | 2.58
29 | COc1ccc(OC)c(NC(=O)c2cc(-c3ccc(C)o3)nc3ccccc23)c1 | 4.39
30 | Cc1ccc2c(c1)c1c3n2CCCNC3CCC1 (stereo not shown) | -0.197
31 | FC(F)(F)c1ccc(CN2CCN(c3ccc(Cl)cc3)CC2)cc1 | 0.708
32 | COc1cccc(/C=C2\CCCC3=C2Nc2ncnn2C3c2cccc(OC)c2OC)c1OC (stereo not shown) | -1.62
33 | CN1C(=O)C(C(=O)O)[C@@H]2c3ccccc3O[C@]13CCC[C@H]23 (stereo partly shown) | 0.13
34 | CCc1nnc(C(=O)[C@H](CC)NC(=O)[C@H](CS(=O)(=O)Cc2ccccc2OC(F)F)/N=C(\C)NS(=O)(=O)c2ccccc2)o1 | -1.5
35 | CCOc1cc(C2CC(=O)NC(C)=C2C(=O)OC)cc(Br)c1OC (stereo not shown) | -2.87
36 | O=C(O)CCCC(=O)Nc1nc(-c2ccc3ccccc3c2)cs1 | 2.38
37 | CC(C)Sc1nnc(NC(=O)C(=O)c2c[nH]c3ccccc23)s1 | 2.32
38 | Cc1ccc(C(=O)N/C(=C\c2cccs2)C(=O)Nc2ccc3c(c2)OCO3)cc1C | -0.968
39 | CC(=O)c1ccc2[nH]c(C(=O)O)c(CCN)c2c1 | 6.24
40 | COc1ccc(NC(=O)CSc2nc3c(c(C(F)(F)F)c2C#N)CCC3)c(OC)c1 | -2.83
41 | Cc1ccc(OCCCCCN2CCOCC2)c(Cl)c1 | 2.22
42 | NC(=O)c1c(NC(=O)c2cccc3ccccc23)sc2c1CCCCC2 | 31.8
43 | CC(C)CCn1c(C(O)c2ccccc2)nc2ccccc21 (stereo not shown) | -1.15
44 | Oc1ccc2cc3c4cc(Br)ccc4nc-3oc2c1O | 1.72

Row | Structure (SMILES) | % Inhibition @ 10 uM [%]
45 | CC1(C)CC(=O)C2=C(C1)N(c1ccc(Br)cc1)C(N)=C(C#N)C2c1cccnc1 (stereo not shown) | 0.385
46 | CCN1CCN(C(=O)c2csc3c2CCCCC3)CC1 | 3.54
47 | CCC(C)c1ccc(NC(=O)COc2ccccc2)cc1 (stereo not shown) | -2.3
48 | COc1cc(/C=C2/SC(=N)N(c3ccccc3F)C2=O)ccc1O | 3.29
49 | COCCN1C(=O)c2[nH]nc(-c3ccccc3O)c2C1c1ccc(C(C)C)cc1 (stereo not shown) | 5.17
50 | N#CC1=C(N)S[C@@H](C(=O)c2ccc(Br)cc2)[C@@H]1c1cccs1 | -5.79
51 | COc1cccc(C(=O)COc2cccc(NC(=O)c3ccc(C)cc3)c2)c1 | 11
52 | CCn1ncc(Br)c1C(=O)NC(C)C1CC2CCC1C2 (stereo not shown) | -4.16
53 | C=CCN1CC(=O)C(c2nc3ccccc3s2)=C1N | -1.22
54 | Cc1[nH]c2ccc(C(=O)N3CCC4(CC3)OCCO4)cc2c1C | 0.399
55 | CC(NC(=O)C1C(=O)N(CCO)C2(C)CC1c1ccccc1O2)c1ccccc1 (stereo not shown) | -7.23
56 | CCOc1ccc(-n2c(SCC(=O)NC(C)CC)nc3nnc(C)c-3c2N)cc1 (stereo not shown) | 8.71
57 | COc1cc2c(cc1OC)CN(C(=O)CSc1nc3c(cc1C#N)CCCC3)CC2 | 2.68
58 | Cc1c(Nc2ccc([N+](=O)[O-])c3nonc23)c(=O)n(-c2ccccc2)n1C | 1.38
59 | CCn1c(C(=O)O)c(CNCCc2ccc(Cl)cc2)c2ccc(C)cc21 | 2.6
60 | CN1CC(c2ccccc2)=Cc2c1ccc1nonc21 | 3
61 | Clc1ccc(-c2csc(NCc3ccco3)n2)cc1 | 1.4
62 | O=C(Nc1ccc2c(c1)OCO2)c1ccccc1F | 1.96
63 | CCN(CC)C(=O)c1ccc(C(=O)c2ccccc2)cc1 | 3.95
64 | OCCc1ccc(OCc2cccc3c2N=S=N3)cc1 | -6.05

— paper PMC6919601, “Identification of Plasmodium dipeptidyl aminopeptidase allosteric inhibitors by high throughput screening” (PLoS ONE, 2019)
